In all, about 310,000 compounds went through this assay and about 2,200 (0.71%) showed an effect of 50% or more. Effects have a minus sign here. Some of the results follow.
Biological target: human ether-à-go-go-related gene (hERG) potassium channel (human, UniProt Q12809)
Test: primary screen, population patch clamp on CHO cells stably expressing hERG

Sequence of human ether-à-go-go-related gene (hERG) potassium channel (Q12809 whole entry, looked up): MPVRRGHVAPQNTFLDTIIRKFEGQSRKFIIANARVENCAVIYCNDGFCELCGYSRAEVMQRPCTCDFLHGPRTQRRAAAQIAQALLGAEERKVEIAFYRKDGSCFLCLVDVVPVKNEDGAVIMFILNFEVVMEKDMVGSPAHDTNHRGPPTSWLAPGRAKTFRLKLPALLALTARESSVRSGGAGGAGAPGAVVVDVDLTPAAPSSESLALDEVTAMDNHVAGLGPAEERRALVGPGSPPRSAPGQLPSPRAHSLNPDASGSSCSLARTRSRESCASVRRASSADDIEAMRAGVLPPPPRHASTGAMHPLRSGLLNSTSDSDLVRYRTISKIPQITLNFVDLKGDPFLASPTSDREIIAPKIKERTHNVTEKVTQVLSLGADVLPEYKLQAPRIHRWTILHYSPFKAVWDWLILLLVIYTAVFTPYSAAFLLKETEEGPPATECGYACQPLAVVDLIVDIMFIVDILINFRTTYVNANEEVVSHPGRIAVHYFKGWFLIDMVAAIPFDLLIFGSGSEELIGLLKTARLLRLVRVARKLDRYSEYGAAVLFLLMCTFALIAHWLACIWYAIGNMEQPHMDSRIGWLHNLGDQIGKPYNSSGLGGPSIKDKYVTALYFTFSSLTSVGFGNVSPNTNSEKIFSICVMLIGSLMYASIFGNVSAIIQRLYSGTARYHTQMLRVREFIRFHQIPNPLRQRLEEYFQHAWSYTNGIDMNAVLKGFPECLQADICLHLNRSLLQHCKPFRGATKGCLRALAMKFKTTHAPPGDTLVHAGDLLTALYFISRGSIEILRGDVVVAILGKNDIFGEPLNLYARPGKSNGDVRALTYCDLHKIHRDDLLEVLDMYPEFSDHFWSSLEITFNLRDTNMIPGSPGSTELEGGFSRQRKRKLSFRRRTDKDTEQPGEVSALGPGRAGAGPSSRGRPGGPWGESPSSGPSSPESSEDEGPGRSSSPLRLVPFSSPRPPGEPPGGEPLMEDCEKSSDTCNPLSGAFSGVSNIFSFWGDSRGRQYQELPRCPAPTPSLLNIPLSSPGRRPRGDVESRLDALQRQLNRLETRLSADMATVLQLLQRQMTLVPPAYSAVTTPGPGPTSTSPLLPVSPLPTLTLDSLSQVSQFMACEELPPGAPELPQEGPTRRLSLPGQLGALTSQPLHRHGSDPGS

Row | SMILES | hERG current change (%, negative = inhibition) at 1uM [%]
1 | CC1=NN(c2ccccc2)C(=O)C1 | 28.7
2 | Cc1cccc(C)c1NC(=O)C1(N(Cc2ccco2)C(=O)Cn2nnnc2N)CCCCC1 | 9.09
3 | COc1ccc(N2CCC(CNC(=O)Nc3ccccc3)C2)cc1 (centres unmarked) | 2.4
4 | N#Cc1c(N)c(C(=O)c2ccccc2)n2c1CCCC2 | 1.07
5 | O=C1NC(=O)C(=Cc2ccc(Oc3ccc([N+](=O)[O-])cc3)cc2)C(=O)N1 | -7.79
6 | O=C(Cn1c(=O)c2cccn2c2ccccc21)Nc1ccc(F)cc1F | 19.1
7 | COc1cccc2sc(NC(=O)c3ccc(S(=O)(=O)N4CCOCC4)cc3)nc12 | 10.5
8 | N#C/C(=C\c1ccc(OCc2ccc(C(=O)O)cc2)cc1)C(=O)NCc1ccccc1 | 11.1
9 | CNc1c(NS(=O)(=O)c2ccc(Br)cc2)c(=O)oc2ccccc12 | 11.1
10 | O=c1ccc2cc(S(=O)(=O)Nc3ccccc3F)ccc2o1 | 10.6
11 | COC(=O)C(Cc1ccccc1)NCC(=O)Nc1cccc(Cl)c1C (centres unmarked) | 4.66
12 | CCOC(=O)c1cnn(-c2cc(Oc3cccc(C)c3)ncn2)c1N | 8.49
13 | CN(Cc1ccc(Cl)s1)C(=O)CNC(=O)CNC(=O)c1ccc(Cl)cc1Cl | -18.6
14 | Cc1ccc(C(=O)OCC2OC3OC(C)(C)OC3C2O)cc1 (centres unmarked) | 10.6
15 | CCOC(=O)C1=C(Nc2cccc(Cl)c2)OCC1=O | 1.09
16 | Cc1ccc(-n2c(N)c(C(=O)Nc3c(C)n(C)n(-c4ccccc4)c3=O)c3nc4ccccc4nc32)cc1C | 10.7
17 | CC/C(O)=C1\C(=O)CCCC1=NCCc1c(C)[nH]c2ccc(C)cc12 | 0.659
18 | Cc1cc(NC(=O)COC(=O)c2cccc(S(=O)(=O)N(C)C3CCCCC3)c2)no1 | -2.93
19 | O=C(NCCCN1CCOCC1)c1ccc([N+](=O)[O-])cc1[N+](=O)[O-] | 10.6

Row | SMILES | hERG current change (%, negative = inhibition) at 1uM [%]
20 | O=C(O)c1cccc(N=NN2CCOCC2)c1 | 12.1
21 | COc1ccc(Nc2nc(N)nc(C(F)(F)F)n2)c(OC)c1 | 9.6
22 | COc1ccc(S(=O)(=O)NCCC(C)C)cc1OC | 7.71
23 | Cc1cc(Cl)nc(-n2nc(C)cc2C)n1 | 9.18
24 | COc1cc2c(cc1OC)C(C)=NC1(CCCCC1)C2.O=C(O)c1ccccc1O | 5.69
25 | Cc1cccc(C)c1NC(=O)CN(C)C(=O)Cc1cccc(C(F)(F)F)c1 | 17.7
26 | Cc1cccc(NC(=O)C2CCN(C(=O)NCc3ccccc3)CC2)c1C | 5.28
27 | COc1cc(C2/C(=C(/O)c3ccc(F)cc3)C(=O)C(=O)N2CCCC(=O)O)ccc1O (centres unmarked) | 13.5
28 | CC(C)(Oc1cccc2ccccc12)C(=O)O | 4.41
29 | COc1ccc(CCNC(=S)NC(=O)c2ccccc2)cc1OC | 8.62
30 | Cc1cc(NC(=O)c2cc(C3CC3)on2)n(-c2ccccc2)n1 | 5.83
31 | CCOc1cc(/C=C(/NC(C)=O)C(=O)O)cc(Cl)c1OCc1ccc(Br)cc1 | -1.81
32 | CCOC(=O)C1=NNC(C(=O)c2ccc(C)cc2)C1c1ccc(C)cc1 (centres unmarked) | 7.94
33 | O=C(Nc1sc2c(c1C(=O)c1ccccc1)CCCC2)c1cccnc1 | 10.9
34 | O=C(O)C1c2ccccc2C(=O)N(Cc2ccc(F)cc2)C1c1ccncc1 (centres unmarked) | 9.28
35 | Cc1cccc(-n2ccnc2SCC(=O)N2CCCc3ccccc32)c1C | -7.5
36 | O=C(C1CC(=O)N(c2ccc(F)cc2)C1)N1CCOCC1 (centres unmarked) | 13.5
37 | Cc1cc2c(c(=O)o1)C(CCC1CCCCC1)C(C#N)=C(N)O2 (centres unmarked) | 11.2
38 | Cc1cccc(OC(C)C(=O)N2CCc3ccccc3C2)c1 (centres unmarked) | 11

Row | SMILES | hERG current change (%, negative = inhibition) at 1uM [%]
39 | CC(=O)OCCNc1cc(Sc2nc3ccccc3[nH]2)c2nonc2c1[N+](=O)[O-] | 14.5
40 | COc1ccc(OC)c(-n2c(-c3cccc(S(=O)(=O)N(C)C)c3)n[nH]c2=S)c1 | 8.42
41 | O=C(C1=C(O)C(=O)N(Cc2ccco2)C1c1ccccc1)c1cccs1 (centres unmarked) | 14.1
42 | CC(C)(C)NC(=O)COC(=O)CCC(=O)c1ccc(F)cc1 | 11.7
43 | CCC(C)(C)c1ccc(OCCCC[n+]2ccccc2)c(C(C)(C)CC)c1.[Br-] | -28.5
44 | CCC(C)NC(=O)CCNS(=O)(=O)c1ccc(Br)cc1 (centres unmarked) | 4.07
45 | C=CCN1C(=O)/C(=C/c2ccc(Br)s2)C(=O)NC1=S | 2.47
46 | CC(C)(Oc1ccc(Cl)cc1)C(=O)N1CCN(C(=O)c2ccco2)CC1 | 9.34
47 | O=c1[nH]c(NCc2ccccc2)nc2c1CCCC2 | 5.5
48 | CCCCC1C(=O)N(c2ccccc2)N(c2ccc(O)cc2)C1=O (centres unmarked) | 7.99
49 | Cc1cc(N2CCN(C)CC2)nc2ccc(NC(=S)NCCCN3CCc4ccccc4C3)cc12 | 1.96
50 | COc1ccccc1NS(=O)(=O)c1cccc(C(=O)N2CCN(C/C=C/c3ccccc3)CC2)c1 | 8.6
51 | Cc1ccc(C(=O)NCC(=O)N2CCC(Cc3ccccc3)CC2)cc1 | 2.08
52 | S=C(Nc1ccc(Nc2ccccc2)cc1)Nc1ccccn1 | 15.3
53 | CCOc1ccccc1OCCCC(=O)N(CC)CC(=O)Nc1ccc(NC(C)=O)cc1 | 11.6
54 | Cc1cccc(Nc2ncnc3nc[nH]c23)c1C | -9.96
55 | COc1ccc(C2C=C(C)Nc3ncnn32)cc1 (centres unmarked) | 14.7
56 | COc1cc2ncnc(NCc3ccc(Cl)cc3)c2cc1OC | 3.84

Source: article PMC4336329 (PLoS ONE, 2015)
